# Measured values as given in the supplement of paper PMC12217912.
# The other results are listed elsewhere or left out. Sequences were assembled here from the parent chain. Values near 0.05 are background.
# B1: TEV protease; numbered along this chain (parent)
# chain: MGESLFKGPRDYNPISSSICHLTNESDGHTTSLYGIGFGPFIITNKHLFRRNNGTLVVQSLHGVFKVKDTTTLQQHLVDGRDMIIIRMPKDFPPFPQKLKFREPQREERICLVTTNFQTKSMSSMVSDTSCTFPSGDGIFWKHWIQTKDGQCGSPLVSTRDGFIVGIHSASNFTNTNNYFTSVPKNFMELLTNQEAQQWVSGWRLNADSVLWGGHKVFMVKPEEPFQPVKEATQL
# Variants of: B1
# Assay: raw area under fraction-flipped curve 0-4 h after induction (AUC4h, not background-subtracted), DNA-recorder readout of cleavage of the substrate (dimensionless); higher = more cleavage of the substrate by the protease variant
# Conditions: temperature: 34 °C; time window: 0-4 h after rhamnose induction
# Procedure: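 In vivo DNA recorder in E. coli TOP10(DE3) ΔrhaA at 34 °C. Each TEVp single-site mutant (parent TEVp 0) is paired with a single-site variant of the 7-mer TEVs (canonical ENLYFQ|S). The substrate sits between flexible linkers in a Bxb1-sfGFP-TEVs-SsrA fusion, so cleavage stabilises Bxb1 and speeds flipping of a recombination array, read by NGS. The value is the raw area under the fraction-flipped curve over 0-4 h after rhamnose induction (AUC4h), with ≥20 reads per time point. It is not background-subtracted; inactive controls average about 0.047.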
# 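Also: Bxb1 expression induced with 0.2% (w/v) L-rhamnose at OD600 near 0.5, cultures sampled hourly, flipped fraction per protease–substrate barcode pair counted by paired-end Illumina sequencing.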
Variant,area with substrate ENAYFQS,area with substrate ENCYFQS,area with substrate ENDYFQS,area with substrate ENFYFQS,area with substrate ENGYFQS,area with substrate ENHYFQS,area with substrate ENKYFQS,area with substrate ENMYFQS,area with substrate ENNYFQS,area with substrate ENPYFQS,area with substrate ENQYFQS,area with substrate ENSYFQS,area with substrate ENTYFQS,area with substrate ENVYFQS,area with substrate ENWYFQS,area with substrate ENEYFQS,area with substrate ENRYFQS,area with substrate ENIYFQS,area with substrate ENYYFQS
MGESLFKGPRDYNPISSSICHLTNESDGHTTSLYGIGFGPFIITNDHLFRRNNGTLVVQSLHGVFKVKDTTTLQQHLVDGRDMIIIRMPKDFPPFPQKLKFREPQREERICLVTTNFQTKSMSSMVSDTSCTFPSGDGIFWKHWIQTKDGQCGSPLVSTRDGFIVGIHSASNFTNTNNYFTSVPKNFMELLTNQEAQQWVSGWRLNADSVLWGGHKVFMVKPEEPFQPVKEATQL [K46D],0.0576,0.0563,0.0658,0.054,0.0479,0.0606,0.0674,0.0616,0.0564,0.0539,0.0592,0.0585,0.0621,0.0639,0.0508,–,–,–,–
MGESLFKGPRDYNPISSSICHLTNESDGHTTSLYGIGFGPCIITNKHLFRRNNGTLVVQSLHGVFKVKDTTTLQQHLVDGRDMIIIRMPKDFPPFPQKLKFREPQREERICLVTTNFQTKSMSSMVSDTSCTFPSGDGIFWKHWIQTKDGQCGSPLVSTRDGFIVGIHSASNFTNTNNYFTSVPKNFMELLTNQEAQQWVSGWRLNADSVLWGGHKVFMVKPEEPFQPVKEATQL [F41C],0.064,–,0.0686,0.0713,0.0664,–,–,0.0846,0.047,–,0.0634,0.0582,0.0591,0.0668,0.0699,0.0572,0.0461,–,–
MGESLFKGPRDYNPISSSICHLTNESDGHTTSLYGIGFGPRIITNKHLFRRNNGTLVVQSLHGVFKVKDTTTLQQHLVDGRDMIIIRMPKDFPPFPQKLKFREPQREERICLVTTNFQTKSMSSMVSDTSCTFPSGDGIFWKHWIQTKDGQCGSPLVSTRDGFIVGIHSASNFTNTNNYFTSVPKNFMELLTNQEAQQWVSGWRLNADSVLWGGHKVFMVKPEEPFQPVKEATQL [F41R],0.051,0.0622,0.0474,0.0478,–,0.053,–,–,0.0507,0.0465,0.0581,0.0601,0.0767,0.053,0.05,0.0497,0.0431,0.0537,0.0611
MGESLFKGPRDYNPISSSICHLTNESDGHTTSLYGIGFGPSIITNKHLFRRNNGTLVVQSLHGVFKVKDTTTLQQHLVDGRDMIIIRMPKDFPPFPQKLKFREPQREERICLVTTNFQTKSMSSMVSDTSCTFPSGDGIFWKHWIQTKDGQCGSPLVSTRDGFIVGIHSASNFTNTNNYFTSVPKNFMELLTNQEAQQWVSGWRLNADSVLWGGHKVFMVKPEEPFQPVKEATQL [F41S],0.0552,0.0647,0.0586,0.0662,0.0409,0.0598,0.0511,–,0.0576,0.0619,0.0607,0.0627,0.0657,0.0604,0.0394,0.0664,0.0664,0.0926,0.0696
MGESLFKGPRDYNPISSSICHLTNESDGHTTSLYGIGFGPKIITNKHLFRRNNGTLVVQSLHGVFKVKDTTTLQQHLVDGRDMIIIRMPKDFPPFPQKLKFREPQREERICLVTTNFQTKSMSSMVSDTSCTFPSGDGIFWKHWIQTKDGQCGSPLVSTRDGFIVGIHSASNFTNTNNYFTSVPKNFMELLTNQEAQQWVSGWRLNADSVLWGGHKVFMVKPEEPFQPVKEATQL [F41K],0.0521,0.0535,0.0359,0.0428,–,–,–,–,0.0604,–,0.053,0.0518,0.0677,0.0409,–,0.0469,0.0494,–,0.0715
MGESLFKGPRDYNPISSSICHLTNESDGHTTSLYQIGFGPFIITNKHLFRRNNGTLVVQSLHGVFKVKDTTTLQQHLVDGRDMIIIRMPKDFPPFPQKLKFREPQREERICLVTTNFQTKSMSSMVSDTSCTFPSGDGIFWKHWIQTKDGQCGSPLVSTRDGFIVGIHSASNFTNTNNYFTSVPKNFMELLTNQEAQQWVSGWRLNADSVLWGGHKVFMVKPEEPFQPVKEATQL [G35Q],0.0746,–,–,0.0486,–,–,–,0.0516,–,–,0.0378,–,–,–,–,–,0.0634,0.0537,0.035
MGESLFKGPRDYNPISSSICHLTNESDGHTTSLYGIGFGPFEITNKHLFRRNNGTLVVQSLHGVFKVKDTTTLQQHLVDGRDMIIIRMPKDFPPFPQKLKFREPQREERICLVTTNFQTKSMSSMVSDTSCTFPSGDGIFWKHWIQTKDGQCGSPLVSTRDGFIVGIHSASNFTNTNNYFTSVPKNFMELLTNQEAQQWVSGWRLNADSVLWGGHKVFMVKPEEPFQPVKEATQL [I42E],0.035,0.0495,0.0379,0.0554,0.0523,0.0362,–,0.0333,0.0541,0.0399,0.0438,0.0443,0.04,–,0.0016,0.0533,0.0377,–,–
MGESLFKGPRDYNPISSSICHLTNESDGHTTSLYGIGFGPFMITNKHLFRRNNGTLVVQSLHGVFKVKDTTTLQQHLVDGRDMIIIRMPKDFPPFPQKLKFREPQREERICLVTTNFQTKSMSSMVSDTSCTFPSGDGIFWKHWIQTKDGQCGSPLVSTRDGFIVGIHSASNFTNTNNYFTSVPKNFMELLTNQEAQQWVSGWRLNADSVLWGGHKVFMVKPEEPFQPVKEATQL [I42M],0.0787,0.0709,–,–,0.0481,0.0621,0.0931,0.0685,–,0.0399,0.0544,0.0995,0.057,0.0863,0.0525,0.0701,0.0368,0.0725,0.0609
MGESLFKGPRDYNPISSSICHLTNESDGHTTSLYGIGFGPFTITNKHLFRRNNGTLVVQSLHGVFKVKDTTTLQQHLVDGRDMIIIRMPKDFPPFPQKLKFREPQREERICLVTTNFQTKSMSSMVSDTSCTFPSGDGIFWKHWIQTKDGQCGSPLVSTRDGFIVGIHSASNFTNTNNYFTSVPKNFMELLTNQEAQQWVSGWRLNADSVLWGGHKVFMVKPEEPFQPVKEATQL [I42T],0.0594,–,0.0514,0.0424,0.064,0.0482,0.0431,0.0574,–,0.0438,0.0323,–,0.0365,0.058,–,0.0541,–,–,–
